Variants at the floor of the assay are shown more often than the library holds them.
B1: TPR 5TU (parent)
chain: GGAUCUUCUCGAUCUAACAAAAAAGACAAAUCUGCCACAAAGCUUGAGAGCAUCUUCGGAUGCAGAGGCGGCAGCCUUCGGUGGCGCGAUAGCGCCAACGUUCUCAACUAUGACACGCAAAACGCGUGCUCCGUUGAAUGGAGUUUAUCAUG

Variants of: B1
Test: polymerase ribozyme fitness, log enrichment relative to wild type (log ratio); higher = more active; in vitro selection for triplet polymerase activity
In short: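 Streptavidin-bead capture of gel-excised extended constructs, followed by RT-PCR, closed a single triplicate in vitro selection round. That round began by annealing PCR-built, transcribed mutant libraries of each subunit of a heterodimeric triplet polymerase ribozyme with a biotinylated primer, the partner subunit and triplets, then incubating them frozen at −7 °C. After Illumina sequencing of inputs and outputs, genotypes needed ≥10 input reads and ≥1 read per output. Fitness is the base-2 logarithm of genotype enrichment over wild-type enrichment, using inverse-variance-weighted replicate averages.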

Point of comparison: C32A G84A, “polymerase ribozyme fitness (log ratio)” value -3.57. Against it:
- U31C G34C C69U U82G C95A U104A G126A U146C — lower, ≤ -4.2
- G34U G42A U53A U56A G100U C108G U135C U144A — lower, ≤ -4.2
- U31G G68C C75A — lower, ≤ -4.2
- U33G U53A — within 0.2 log units, -3.68
- U33A C63G U101G U144C C149G — lower, ≤ -4.2
- G34A A107U — lower, ≤ -4.2
- C32G C105U — lower, ≤ -4.2
- U33G A47C G81C G84U A89G — lower, ≤ -4.2
- U31A C35A C43A C57U A147G U148A — lower, ≤ -4.2
- U31C C32G C72U C93A A107U G141C C149G G152C — lower, ≤ -4.2
- C32G G50A C51A U56A C57U A97U G126U U148A — lower, ≤ -4.2
- U33G A52C G92C U139C — lower, ≤ -4.2
- C32G G42C G88C A106C C123U U144A — lower, ≤ -4.2
- U31G C35A G42A — lower, ≤ -4.2
- U31A G59C C75U A91U U109G G112A — lower, ≤ -4.2
- U31A G50C U78G G94U C99G U148A — lower, ≤ -4.2
- C32U G84A — higher, -2.55
- C32A G88C G141C — lower, ≤ -4.2
- C32A A41C A66C C95U C99G G117U A150C — lower, ≤ -4.2
- G34U G94A — higher, -2.37
- C32A U55A U61G A73G G94C U104G — lower, ≤ -4.2
- G34U A49G C93A C99A — lower, ≤ -4.2
- U31A U90G — lower, ≤ -4.2
- U33C U55C G88U A91U A106G — lower, ≤ -4.2
- C32U U148G — lower, ≤ -4.2
- U31A G81A G92A A110U C149G — lower, ≤ -4.2
- U33G U55A C79G G80U C105A U151A — lower, ≤ -4.2
- C32U U101A — within 0.2 log units, -3.76
- U31G U61G A91G U144A — lower, ≤ -4.2
- C32U U33A G50C A52U C54A G81C — lower, ≤ -4.2
- U33C A47G C63A A64U A89G C99U C103G C116A C125G G143U — lower, ≤ -4.2
- C32G A49U G74U U77G A89U — lower, ≤ -4.2
- G34A C93G C95A U111G — lower, ≤ -4.2
- G34U A47C A52G G58A G80U U90C A91U C105A C108U — lower, ≤ -4.2
- G34U C63U C85A A89U G141A — lower, ≤ -4.2
- C32U C38U U109G — lower, ≤ -4.2
- U31G G83U G126C — higher, -0.857
- C32U G42U U55G — lower, ≤ -4.2
- C32U G81C G92U U134A G136C — lower, ≤ -4.2
- C32A A89C C95A — lower, ≤ -4.2
- U31G C35U G62C C108A G133C — lower, ≤ -4.2
- U31C U53A G74C G83A A91C C149G — lower, ≤ -4.2
- U31G A52C C54A — lower, ≤ -4.2
- G34U U55A C85U C105G — lower, ≤ -4.2
- U31A C96U A115C U146C — higher, -0.845
- C32U U90G — lower, ≤ -4.2
- C32G C43U C93A A107G — lower, ≤ -4.2
- U31C C54G G83C G94A — lower, ≤ -4.2
- U33G A41G C93A C99A G133U — lower, ≤ -4.2
- U33A A142C C149A — lower, ≤ -4.2
- G34U A37U U55A G136U — lower, ≤ -4.2
- U33G G42U G70A G88C G94U — lower, ≤ -4.2
- U33A U44A U127C G143U — lower, ≤ -4.2
- U31G G92C U109A G143C — lower, ≤ -4.2
- C32G A40G G50A A52C C75G C93U A121G — lower, ≤ -4.2
- C32U A52G U77G A97C U144A — lower, ≤ -4.2
- U31A C36U A91G G92A U104A C123A C149G — lower, ≤ -4.2
- U31A U53A C95U A119G — higher, -0.866
- C32A G84U A97G C131U U139C — lower, ≤ -4.2
- G34C U78C A91G U146A — lower, ≤ -4.2
- U31C A52C C54U G59A U78A A106C U151A — lower, ≤ -4.2
- C32U G50A A52G G58A C87G C118G — lower, ≤ -4.2
- C32G U33G — lower, ≤ -4.2
- C32U C57G G80A — lower, ≤ -4.2
- U33A C72U G86U — lower, ≤ -4.2
- C32G A37U G59A G83U C87U — lower, ≤ -4.2
- U33A G58A C96A G152U — lower, -3.79
- C32G G42A A47C U53A U61C A115G — lower, ≤ -4.2
- U31A C93A A115C — higher, -1.71
- G34A G140A — lower, -3.88
- C32U A41U G59C A89C G92A A147C — lower, ≤ -4.2
- U33G G59C A89U — lower, ≤ -4.2
- C32U G86C C87G C95G C149U — lower, ≤ -4.2
- C32U A40U U56C C85U U90A C114U — lower, -4.06
- U31A C87G C114A — lower, -4.03
- G34A G50U A52G G59C A91G G94A G117A A119G G143C — lower, ≤ -4.2
- U31G C116G U144C — lower, -4.03
- C32U A39G A40C C54A G94U A142U — lower, ≤ -4.2
- C32U C54A C85A G88A A137U — lower, ≤ -4.2
- G34A G50A G68U G71A C76A C85A C125U — lower, ≤ -4.2
- U31G A37G A41U U82A — lower, ≤ -4.2
- U33G C72U G80C C87G C108G G128U U135G — lower, ≤ -4.2
- U33G G83U C108A U111G — lower, ≤ -4.2
- U31C U53G — higher, -0.735
- U33G U53A G58A — lower, -3.78
- U31G G42C G59C C79A G94A A98G A115G — lower, ≤ -4.2
- C32G U56A G94A C108U G124C U145A — lower, ≤ -4.2
- G34C C72U G86U G88C A150G — lower, ≤ -4.2
- U33G C76G G80A A138C — lower, ≤ -4.2
- U33C A52G C79A G112U — lower, ≤ -4.2
- C32U A47G G59C G100A — lower, ≤ -4.2
- C32A U33C G50C G59A C72A G83C C103A — lower, ≤ -4.2
- C32G C75A G84C — lower, ≤ -4.2
- C32G G58U G84U C149A — lower, ≤ -4.2
- U31G C32A U139A — lower, ≤ -4.2
- U33A G80A — within 0.2 log units, -3.68
- U33A G80A C96U — lower, ≤ -4.2
- C35A A52C C93U A97U A106U U145G C149A — lower, ≤ -4.2
- U31C A39C A49G G50C C76G A89U A98G G124C — lower, ≤ -4.2
- U33C A40C G68U C95A U102C C132G — within 0.2 log units, -3.48
- U31A C43U A73G C87G A122U — lower, ≤ -4.2
- C32G G80U U111A — lower, ≤ -4.2
- U33G C93G C95G U144A — lower, ≤ -4.2
- U31A G34U A39U U55G G84U C96A A98U — lower, ≤ -4.2
- C32U A39U A73U G94U G140A A150G — lower, ≤ -4.2
- U31C U44A G62U C95U — lower, ≤ -4.2
- C32A C43U U53A U77G U151G — lower, ≤ -4.2
- U33G C72U C95A G126U A137G — lower, ≤ -4.2
- U33G A40G C54U U55G A98G A147U A150C — lower, ≤ -4.2
- C32U C85A C99G G133C U139G — lower, ≤ -4.2
- U31A G58C C75A C103U U109A A110G — lower, ≤ -4.2
- U31G A89C C95G C99A — lower, ≤ -4.2
- C32G G48C C51U G59A C72U G88A G126U — lower, ≤ -4.2
- U31C C54U G71U C96U — lower, -3.79
- U31C C32U A60U A66C G81U C96G G100U — lower, ≤ -4.2
- G34A C85U U101G — within 0.2 log units, -3.5
- U31C U101C G124A — higher, 1.05
- U33C A60U A73U A122G — higher, -2.54
- U33G C69U C76A G92C — lower, ≤ -4.2
- G34A A49C G68C C96A C116U — lower, ≤ -4.2
- U31A C131A — higher, -1.89
- C32U C54U C95U C105G U127A U134A U139G — lower, ≤ -4.2
- U31G C32U C57A G59C G100A G141A — lower, ≤ -4.2
- C32U A49C U55A G81A C85U U90A A106U A121U C125A — lower, ≤ -4.2
- U31A G81U G83U C95U C105A C129A U148G — lower, ≤ -4.2
- C32U G46C G136A A150U — lower, ≤ -4.2
- U31A C125A — higher, 0.0765
- C32G U77A C85A G112U U135G G143A — lower, ≤ -4.2
- C32G U45G U56A G58A A73G G88A C116U G136U — lower, ≤ -4.2
- C32A G74C G81C G94A A121U — lower, -4.03
- G34U G74A C96A G126A — lower, ≤ -4.2
- C32U A41C G46A U56A C87A G140A — lower, ≤ -4.2
- U33C G48C U56A C87G A97U C108U G136A A150C — lower, ≤ -4.2
- C32G U78C G81U C85G C116G C118A — lower, ≤ -4.2
- U31C A52G C54A A106G C129G U144G A147U — lower, ≤ -4.2
- U33A A91G — lower, ≤ -4.2
- U31G A37U A41C C75U C76G C96U C105U G117U G133U U134C — lower, ≤ -4.2
- C32G U44G A66G C116U C118G A138G U144C — lower, ≤ -4.2
- C32G A107U U139C — lower, ≤ -4.2
- G34A G58C A113C G133U A138G — lower, ≤ -4.2
- U33G G48A G59A G84A G88A C149U — lower, ≤ -4.2
- U31C G80C U144A — lower, ≤ -4.2
- U31C A41G U53A U55A — higher, -0.0378
- G34U G67A C76U C85A — lower, ≤ -4.2
- G34A U111C A113C G124U G152U — lower, ≤ -4.2
- U33G G50A C93G G128A — lower, ≤ -4.2
- C35A A39C A91U A121U — lower, ≤ -4.2
- C32A C35U C57G G62A U90C C103G C116U C149U — lower, ≤ -4.2
- C32G G34A U44G G80U C116U C118G — lower, ≤ -4.2
- U33G U56C G81C C95U — within 0.2 log units, -3.74
- C32U G67C C76U U82A A98U C118U — lower, ≤ -4.2
- C32U G71C C103G A113G A121G U134C — lower, ≤ -4.2
- U31A C43A G83A C99A — lower, ≤ -4.2
- C32G A73G C85U A138U G141A — lower, ≤ -4.2
- U31A G94U C116U G143A A150U — lower, ≤ -4.2
- C32G U56G A120G U148A — lower, ≤ -4.2
- U31C U44A G50A A97C U102G A113C — lower, ≤ -4.2
- U31A U45A C76U C85U C93U G136U A150C — lower, ≤ -4.2
- C32G G124A U135A — lower, ≤ -4.2
- U31A C36G G50U G83C U102C — lower, ≤ -4.2
- G34U C79G A89G C93G A113U C132G — lower, ≤ -4.2
- U31A C57U C87U A89G G117A — lower, -3.86
- U33G U55C C76U G86U C105A C116U — lower, ≤ -4.2
- G34A G50C G92U — lower, ≤ -4.2
- C32G G80A G92U C95A U102C G124A — lower, ≤ -4.2
- U31C A49C U90C U109C A119C G143A U144C — lower, ≤ -4.2

Source: the RNAGym collection of RNA variant scans (doi:10.1073/pnas.2313332121)
